According to publication PMC4336329 (PLoS ONE, 2015):
Out of some 310,000 compounds screened, about 2,200 (0.71%) showed an effect of 50% or more. The effect is printed as a negative number. Some of the results follow.

Molecular target: human ether-à-go-go-related gene (hERG) potassium channel (human, UniProt Q12809)
Assay: primary screen, population patch clamp on CHO cells stably expressing hERG

Chain of human ether-à-go-go-related gene (hERG) potassium channel (Q12809 whole entry, looked up): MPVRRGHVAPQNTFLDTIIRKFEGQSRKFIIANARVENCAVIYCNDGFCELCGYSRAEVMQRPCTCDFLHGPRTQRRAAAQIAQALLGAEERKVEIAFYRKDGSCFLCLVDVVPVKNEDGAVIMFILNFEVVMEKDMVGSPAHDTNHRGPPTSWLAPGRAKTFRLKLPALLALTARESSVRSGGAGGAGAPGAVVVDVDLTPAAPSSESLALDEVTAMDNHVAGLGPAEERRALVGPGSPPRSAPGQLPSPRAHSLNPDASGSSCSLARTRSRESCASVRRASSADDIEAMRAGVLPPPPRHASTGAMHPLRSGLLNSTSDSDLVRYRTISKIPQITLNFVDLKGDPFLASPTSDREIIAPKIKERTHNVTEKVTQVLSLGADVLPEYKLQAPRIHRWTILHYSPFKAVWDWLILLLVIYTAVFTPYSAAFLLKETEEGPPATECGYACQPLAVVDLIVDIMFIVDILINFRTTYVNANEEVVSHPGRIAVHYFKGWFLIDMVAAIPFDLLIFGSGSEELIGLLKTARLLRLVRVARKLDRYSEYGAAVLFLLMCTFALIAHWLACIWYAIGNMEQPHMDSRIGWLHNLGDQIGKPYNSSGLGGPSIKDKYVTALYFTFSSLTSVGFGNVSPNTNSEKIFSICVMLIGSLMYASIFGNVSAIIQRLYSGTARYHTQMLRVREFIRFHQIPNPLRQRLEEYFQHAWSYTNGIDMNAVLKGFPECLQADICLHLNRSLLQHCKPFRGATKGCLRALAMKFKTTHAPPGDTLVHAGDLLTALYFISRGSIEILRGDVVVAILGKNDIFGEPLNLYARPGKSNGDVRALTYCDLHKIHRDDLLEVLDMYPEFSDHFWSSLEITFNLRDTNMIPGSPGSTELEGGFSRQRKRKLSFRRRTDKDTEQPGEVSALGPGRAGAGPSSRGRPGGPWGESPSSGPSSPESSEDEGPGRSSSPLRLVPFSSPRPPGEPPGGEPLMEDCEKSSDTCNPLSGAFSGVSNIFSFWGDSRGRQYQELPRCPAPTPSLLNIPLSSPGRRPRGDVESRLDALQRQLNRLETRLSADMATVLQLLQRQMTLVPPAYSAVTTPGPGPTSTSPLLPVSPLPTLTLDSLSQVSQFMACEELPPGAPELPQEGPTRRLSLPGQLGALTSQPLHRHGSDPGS

Structure (SMILES)	hERG current change (%, negative = inhibition) at 1uM
Cc1ccccc1NC(=O)c1ccc(COc2ccc3c(C)cc(=O)oc3c2)cc1	13.8%
COc1ccc(F)c(C2C(C#N)=C(N)Oc3n[nH]c(C(C)(C)C)c32)c1 (centres unmarked)	13.4%
COc1ccc(N2CCN(CCC(=O)c3ccc4ccccc4c3)CC2)cc1	11.4%
Fc1ccccc1CSc1ncnc2c1oc1ccccc12	9.4%
O=C(O)C1C(C(=O)O)C1(c1ccccc1)c1ccccc1 (centres unmarked)	14.1%
COc1ccc(OC)c(NC(=O)CSc2nc3n[nH]c(C)c3c(=N)n2-c2cccc(Cl)c2C)c1	9.76%
NNC(=O)/C=C/c1ccc(Cl)cc1Cl	7.44%
COc1ccc(CCNC(C)CCc2ccc(OC)cc2)cc1 (centres unmarked)	-2.61%
Cc1ccc(Cl)cc1N1CCN(C(=O)c2cn(C)c(=O)c3c2c2ccccc2n3C)CC1	5.27%
COc1cccc(/C=N/NC(=O)NC23CC4CC(CC(C4)C2)C3)c1O	6.53%
O=C(Cn1c2ccccc2c(=O)c2ccccc21)N/N=C/c1cc([N+](=O)[O-])ccc1N1CCCCCC1	9.02%
O=C(Nc1cc(S(=O)(=O)N2CCCCC2)ccc1Cl)C1=NN(c2ccccc2)C(=O)CC1	13.7%
O=C(/C=C/c1ccc(-c2cccc([N+](=O)[O-])c2)o1)N1CCOCC1	11.8%
CCN1c2ccc(S(=O)(=O)N3CCOCC3)cc2N(Cc2ccc(OC)cc2)C1C (centres unmarked)	11.7%
CC1CCC(NC(=O)c2cccc(S(=O)(=O)N3CCN(c4ccc(F)cc4)CC3)c2)CC1 (centres unmarked)	11.2%
COc1ccc(/C=N\NC(=O)C2COc3ccccc3O2)cc1O (centres unmarked)	4.76%
C#CCOCCOCCOCCNc1nc(N2CCN(C(=O)[C@H](CCCCN)n3cc([C@@H](N)CC(C)C)nn3)CC2)nc(N2CCN(C(=O)[C@H](CCCCN)n3cc([C@@H](N)CC(C)C)nn3)CC2)n1.Cl	7.45%
Cc1c(C(=O)NCc2cccs2)oc2ccccc12	4.62%
CCOc1ccc(C(C)NC(=O)c2cccnc2OCC)cc1OCC (centres unmarked)	13.3%

Structure (SMILES)	hERG current change (%, negative = inhibition) at 1uM
CC(=O)Nc1ccc(S(=O)(=O)NC2=NCN(CCOC(=O)c3ccccc3)CN2)cc1	4.56%
COc1cc(/C=N/NC(=O)c2ccc([N+](=O)[O-])cc2Cl)cc(Br)c1O	13.1%
O=C(CCCc1cccs1)Nc1nccs1	28.1%
COc1ccc(C(CNC(=O)c2cccc(S(=O)(=O)Nc3ccccc3OC)c2)N2CCOCC2)cc1 (centres unmarked)	-8.5%
C/C(=N\N1CCCCC1)c1c(O)[nH]c(=O)[nH]c1=O	1.29%
COc1cccc(-n2c(SCC(=O)NCCC3=CCCCC3)nc3n[nH]c(C)c3c2=N)c1	4.2%
O=C(Cc1ccccc1[N+](=O)[O-])N1CCN(S(=O)(=O)c2ccccc2)CC1	10.4%
COc1cccc(C(=O)C2CCCN(C(=O)c3ccccn3)C2)c1 (centres unmarked)	9.39%
C[C@H](NC(=O)N1CCn2c1nc1ccccc12)C(=O)N1CCCCC1	15.1%
Cn1c(SCc2ccc3c(c2)OCO3)nnc1-c1ccccc1	10.4%
COC(=O)c1cnn(-c2cc(Oc3ccccc3)ncn2)c1N	-9.93%
Cc1ccc(NC(=O)COC(=O)c2csc3c2CCC(C)C3)cc1S(=O)(=O)N1CCCCC1 (centres unmarked)	4.05%
CCCn1c(N)c(N2CCCCC2)c(=O)n(CC(=O)Nc2ccccc2)c1=O	14.7%
CN(CCO)C1=CC(=O)CC(C)(C)C1	11.2%
CC12CCC(C/C1=N/O)C2(C)C (centres unmarked)	10.6%
COc1ccccc1NC(=O)C1CCCN(S(=O)(=O)c2ccccc2)C1 (centres unmarked)	16.7%
CS(=O)(=O)N(CC(=O)Nc1ccc(F)cc1)C1CCCCC1	14.5%
Cc1ccc(S(=O)(=O)NCC(=O)OCN2C(=O)c3ccccc3C2=O)cc1	8.69%
O=C(NNc1ccccc1C(F)(F)F)c1cccs1	7.55%

Structure (SMILES)	hERG current change (%, negative = inhibition) at 1uM
CC(C)(C)n1cnc2cc(NCc3ccc(Br)cc3)ccc21	6.74%
CCNC(=S)N/N=C(\C)c1ccco1	18.4%
O=C(Nc1ccc(O)cc1)c1cc(S(=O)(=O)N2CCCC2)ccc1Cl	5.73%
C=C(C)CNC(=S)Nc1cccc2cnccc12	16.7%
Cc1nc(C)c(C(=O)NNC(=O)Nc2ccc(Cl)cc2)s1	15.2%
Cc1ccc(OCc2nnc(SCC(=O)N3CCc4ccccc43)n2C)cc1	19.9%
COc1ccc(CCC(=O)OCC(=O)Nc2ccc(C)c(S(=O)(=O)N(C)C)c2)cc1	12.5%
CCCn1c(C(C)C)n[nH]c1=S	12.2%
CN(CC(=O)Nc1ccc(F)c(F)c1F)c1ncnc2sccc12	11.7%
Cc1cc(SCC(=O)c2ccc3c(c2)OCO3)nc2ccccc12	2.06%
O=C(Nc1ccc(CN2CCOCC2)cc1)c1ccc(Br)o1	15.2%
O=C(NCc1cccnc1)c1ccc2c(c1)C(=O)N(Cc1ccccc1)C2=O	4.43%
CN(C)CCCN(C(=O)C1COc2ccccc2O1)c1nc2ccc(F)cc2s1.Cl (centres unmarked)	-64.9%
COC(=O)c1ccc(CSc2ccccc2C)o1	11.1%
CCOC(=O)N1CCC(=NNS(=O)(=O)c2cccc([N+](=O)[O-])c2)CC1	-0.925%
COc1ccc(C2(CCN=Cc3ccc(N(C)C)cc3)CCOC(C)(C)C2)cc1 (centres unmarked)	6.8%
Fc1cccc(NCc2cn3ccccc3n2)c1	14.3%
CCOC(=O)C1=C(N)OC2=C(C(=O)CCC2)C12C(=O)N(CC(N)=O)c1ccccc12 (centres unmarked)	2.29%
